Values marked as one replicate rest on one cluster of the flow cell; about a third of the high ones do not repeat.
System: ATP
Assay: switch fluorescence ratio, 500 uM ATP over buffer (Cy3 cluster intensity, sum of 5 cycles each) (fold (ratio)); higher = stronger signal-on switching upon ATP binding; sequences stand for … in TCGTCGGCAGCGTCAGATGTGTATAAGAGACAGTTTTTTTTTTTTTTTTTTTTTTTTT…TC
Settings: aptamer strand: ATP DNA aptamer (quencher-CACCTGGGGGAGTATTGCGGAGGAAGG + anchor), 100 nM annealed; ATP concentration: 500 uM; one replicate
In short: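 Values give the fluorescence ratio for each switch-domain sequence, averaged from per-cluster ratios of summed target-cycle to summed buffer-cycle Cy3 intensity. The Cy3-labelled switching-strand clusters sat on a modified Illumina MiSeq flow-cell, were annealed to 100 nM quencher-labelled ATP aptamer, and were imaged in selection buffer, then after 15 min with 500 uM ATP at 22 °C. Five cycles ran with NaOH stripping and re-annealing between them, and clusters outside 100-1000 RFU were excluded.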
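Also: ATP exposure 15 min at 22 °C before imaging.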

Row | Sequence | switch fluorescence ratio
1 | ATGTGCACTT | 1.01
2 | AAGGAGTTCT | 1.02
3 | GCCCGAGTTC | 0.993
4 | ACGTAATGGA | 1.17
5 | TGTGCCCACA | 1
6 | GACTTCAGGA | 0.996
7 | TGGGGTTAAC | 0.981
8 | TGGTATGAGC | 1.04
9 | GTCACCGTTT | 0.992
10 | ATCTTAACA | 0.954
11 | ATAACACTAG | 1.02
12 | GAACAGAGCA | 1.02
13 | CACTCAAACT | 1.12
14 | CTCGGGATCG | 0.977
15 | AACGTCCATA | 1.01
16 | GTGATAGCAT | 1.02
17 | TTTTCTTATA | 0.999
18 | GAGGCTTGAT | 0.943
19 | TCGGGAGG | 1.01
20 | GTGCGCAGGG | 1.05
21 | AACCAAGAGA | 0.989
22 | TTGGACCTCA | 1.12
23 | GATTGACCGC | 1.09

Row | Sequence | switch fluorescence ratio
24 | TTACGATCGA | 1.03
25 | GATTAGTTTG | 1
26 | TGGACCTAGC | 1.06
27 | GGGCCTCTTA | 1.01
28 | AGGGGATTT | 1.03
29 | GACAAGACGA | 1.31
30 | ATCTTGATCT | 1
31 | GCCCTAATCG | 0.993
32 | CGGGGTTGC | 0.97
33 | GCGGCTGAAG | 0.969
34 | GGTTGGCCTG | 1.05
35 | TAGGATTGAC | 0.989
36 | CGTCGCATAG | 2.66
37 | CTCGGGCGGA | 1.01
38 | TAGTAACGCT | 1.02
39 | TTAAGCCAAT | 1.03
40 | GAGGATTGTT | 1.04
41 | CAAGCGCGCG | 1.09
42 | TAGTAGAT | 1.01
43 | ACGTTATGAT | 1.23
44 | TACTTACCTT | 1.18
45 | GAAGCCGTTG | 0.987
46 | ATCGTATAGG | 0.966

Row | Sequence | switch fluorescence ratio
47 | TTTAGGCCGG | 1.01
48 | ACCTTGTCTC | 1.23
49 | TCTACCAAAA | 1.04
50 | GATCATATT | 1.01
51 | TTACCTATTG | 0.995
52 | GTTGTATTAA | 0.995
53 | AGGAAGTTTG | 1
54 | CCGAGTTATT | 1.13
55 | GATGTTGTA | 0.954
56 | AGGAGAAGCG | 0.994
57 | ATTAACGGGG | 1
58 | GGGTGGTACA | 0.958
59 | AAATATCGG | 0.985
60 | CAGTGGTACA | 1.03
61 | GACCAGGCAA | 1.17
62 | GGACTGTGAG | 1.02
63 | GAGAAAGCGC | 1
64 | GAAGGATTTG | 1.04
65 | TTAGATTTA | 0.995
66 | AGGGCATACG | 1.09
67 | GGCCGGCTTA | 0.996
68 | TGAAAGGCG | 0.992
69 | CGAGGCCAGG | 2.66

Row | Sequence | switch fluorescence ratio
70 | AGGGGGCGC | 0.988
71 | CACTTCTA | 0.997
72 | GCCCATAAAT | 0.962
73 | TGGCGCCAGT | 0.987
74 | TGCGCTATTA | 1.03
75 | GCGTACGTTG | 1.05
76 | AAATGTCAGT | 0.974
77 | GAGTGATGGA | 0.976
78 | GCCTAACGCC | 1.11
79 | CCAATGGGAG | 1.02
80 | ACTAGGCGA | 1.01
81 | TAATAATGAT | 1.01
82 | AGGCACTGG | 1.06
83 | GGTATCTTTG | 1
84 | CAGTTACCTG | 0.999
85 | TGAATCGTGG | 0.981
86 | CCACAGCGTT | 1.75
87 | ACGTTCCTGG | 1.16
88 | TCACTGTGGG | 1.01
89 | AGCCTGCAGA | 1.07
90 | GGAGGCACTA | 0.993
91 | GAGGTTTGAC | 0.967
92 | TTGGGTATTC | 0.995

Row | Sequence | switch fluorescence ratio
93 | TTCCTTAGTT | 0.969
94 | ATGTGTTTTC | 0.996
95 | GATGCGGCCA | 1.01
96 | CCATGATGCG | 1.1
97 | GCGGACCCGC | 0.98
98 | ATCGTTAGCA | 0.984
99 | CGTTCTATGA | 0.981
100 | CTTTTTTTCG | 1.02
101 | TCCAATTTAA | 1.01
102 | TGTAAAAATA | 0.954
103 | ATATATGATA | 1.01
104 | CCGATCAAGG | 1.29
105 | TTGGGCAAAG | 0.97
106 | GACGTAGGG | 0.994
107 | CCGCATTCCA | 3.42
108 | CAAGGGATCA | 0.957
109 | TTACGAGAAC | 1.53
110 | CGAACTCAGC | 1.18
111 | TGGAAGATTT | 0.987
112 | ATTATGGCCT | 1.03
113 | AAATTCCAAA | 1.01
114 | CCTTAAACTT | 1.07
115 | CCTAGGGTGC | 2.47

Row | Sequence | switch fluorescence ratio
116 | GCTGCGATAA | 2.52
117 | TACACTGCTC | 1.13
118 | GTAATTGTAG | 1
119 | GGGTCGGAAG | 0.974
120 | GGCTCAGTAT | 0.996
121 | CGTCCTGTT | 0.987
122 | TCTGGATCGG | 1.04
123 | CTGACGCGAG | 1.24
124 | ATAAAACGGA | 0.956
125 | TCGGACCGTT | 0.967
126 | ATGCCTGCTT | 0.987
127 | GTACGCGCAG | 1.03
128 | CCTTCTTTT | 1.01
129 | GGGATCGCGC | 1.02
130 | ACCTGCGCTT | 2.59
131 | AGCGTTCAGG | 1.01
132 | CGAACTTATA | 1
133 | ATTCTGCTTT | 1.02
134 | TAGTTTAGTC | 1.02
135 | ACTAATTAGA | 1.03
136 | TTTGCGACT | 0.961
137 | TATGCTTCAC | 1.02
138 | ACCTGAACTT | 1.08

Row | Sequence | switch fluorescence ratio
139 | CTCCGGCCGG | 1.03
140 | TCCGTCCGTT | 1.32
141 | TATATTATTT | 1
142 | CAGGCCGAGG | 0.983
143 | AGGGCCTGT | 1.04
144 | AGTGATGATT | 1
145 | CGTTGCGAA | 0.973
146 | TTATAGGTGA | 1.02
147 | GTATCGGCGT | 1
148 | CACCCCACAG | 1.29
149 | TTGAGCCTAT | 1.02
150 | ATGACGCGCC | 1.05
151 | TCACCGCAGG | 1.04
152 | GCATGTATCT | 0.995
153 | AGGACCCGCT | 1.09
154 | GAGCATCCAT | 1.05
155 | TCACAGGGGA | 1.07
156 | TCGAGTGACT | 0.978
157 | TAGCCGTCGT | 1.05
158 | CACTGTTTAC | 1.13

— the supplement of paper PMC10126150
